From a collection of fitness landscapes (doi:10.1038/s41467-024-54723-y)
In all, about 18,000 sequences were measured (“TetR repression strength (sort-seq, GFP reporter)”: median about 0.23, highest 2% from about 0.68 on). The list shows a part of the results.

These sequences were tested against TetR (class B, Tn10) (UniProt P04483) (assay: TetR repression strength (sort-seq, GFP reporter) (relative to tetO2 = 1); higher = stronger repression). Conditions: E. coli.
Procedure, shortened: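 Escherichia coli SIG10-MAX cells carried a low-copy plasmid library in which eight operator positions were randomized between a constitutive promoter and sfGFP, and TetR was expressed constitutively. After 5 h of growth at 37 °C in LB with 50 µg/mL chloramphenicol, 10^6 cells were FACS-sorted into 13 fluorescence bins, and each bin was Illumina-sequenced. Repression strength was the top bin index plus one minus the read-weighted mean bin, divided by the value for the unaltered operator. Across three independent transformations, only library members with ≥30 reads in every replicate and a CV ≤0.5 were averaged.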

Sequence of UniProt P04483 (P04483 whole entry): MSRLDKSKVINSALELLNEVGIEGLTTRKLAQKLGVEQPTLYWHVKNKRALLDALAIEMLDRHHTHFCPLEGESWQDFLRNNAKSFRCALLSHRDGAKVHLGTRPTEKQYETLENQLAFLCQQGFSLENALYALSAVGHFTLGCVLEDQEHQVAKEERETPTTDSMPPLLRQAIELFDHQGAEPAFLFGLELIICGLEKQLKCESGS

Sequence | TetR repression strength
TCCCTAGAAGTACATGAGA | 0.235
TCCCTTATAGTAGAGGAGA | 0.0704
TCCCCCTTAGTGGATGAGA | 0.157
TCCCATGGAGTATGGGAGA | 0.093
TCCCCCGAAGTGCACGAGA | 0.256
TCCCAGCTAGTGTTAGAGA | 0.22
TCCCAGGAAGTGGCGGAGA | 0.186
TCCCCGTTAGTGGCGGAGA | 0.108
TCCCACTCAGTGCTTGAGA | 0.298
TCCCAGTGAGTTTGCGAGA | 0.212
TCCCTTTGAGTACAGGAGA | 0.318
TCCCGGCTAGTGTTGGAGA | 0.166
TCCCTGGTAGTAGCGGAGA | 0.221
TCCCACTTAGTTAAGGAGA | 0.182
TCCCCGGTAGTGCAAGAGA | 0.286
TCCCTTTGAGTGCACGAGA | 0.522
TCCCTTGAAGTGACGGAGA | 0.317
TCCCGAAGAGTGCAGGAGA | 0.58
TCCCTGGCAGTCCGTGAGA | 0.177
TCCCGGGAAGTAGGAGAGA | 0.24
TCCCGCCCAGTAGCGGAGA | 0.173
TCCCGAGTAGTCGTAGAGA | 0.0921
TCCCGTACAGTCTGGGAGA | 0.133
TCCCCGGCAGTGCTTGAGA | 0.0239
TCCCGCAGAGTCGACGAGA | 0.518
TCCCGGACAGTGCGGGAGA | 0.162

Sequence | TetR repression strength
TCCCGTAGAGTGGGTGAGA | 0.1
TCCCGCTGAGTGTTGGAGA | 0.0653
TCCCTAAAAGTGGTAGAGA | 0.0296
TCCCAAGAAGTCGGTGAGA | 0.0715
TCCCGCCTAGTCAGCGAGA | 0.0159
TCCCATGCAGTGTGAGAGA | 0.188
TCCCTCAAAGTCTATGAGA | 0.367
TCCCGGCGAGTCGAGGAGA | 0.214
TCCCTGCTAGTCAGGGAGA | 0.331
TCCCGGTGAGTCCGTGAGA | 0.0804
TCCCAAGCAGTGGTCGAGA | 0.494
TCCCAGCGAGTGCTGGAGA | 0.28
TCCCTTCGAGTTCCTGAGA | 0.409
TCCCGTAGAGTAATTGAGA | 0.217
TCCCGCGGAGTCGAAGAGA | 0.415
TCCCTCAGAGTGATGGAGA | 0.152
TCCCGCTGAGTGAGAGAGA | 0.406
TCCCGAAGAGTACGGGAGA | 0.357
TCCCATTGAGTGAATGAGA | 0.301
TCCCTGCGAGTAAGCGAGA | 0.205
TCCCGTATAGTCACCGAGA | 0.095
TCCCATAAAGTAGAAGAGA | 0.234
TCCCAGGTAGTACGGGAGA | 0.119
TCCCGTGAAGTGTAGGAGA | 0.235
TCCCACTGAGTCAGAGAGA | 0.279
TCCCAGTGAGTCTCGGAGA | 0.375

Sequence | TetR repression strength
TCCCGCCAAGTATCGGAGA | 0.547
TCCCTCGAAGTGTCGGAGA | 0.305
TCCCCCCGAGTTCCTGAGA | 0.466
TCCCTTTTAGTGCATGAGA | 0.711
TCCCAGGAAGTAAACGAGA | 0.301
TCCCACTGAGTTTACGAGA | 0.282
TCCCGCCAAGTCCGCGAGA | 0.179
TCCCACAGAGTGCGTGAGA | 0.543
TCCCCTTAAGTGGTAGAGA | 0.201
TCCCGGACAGTGAAGGAGA | 0.295
TCCCGCACAGTGTGCGAGA | 0.199
TCCCGGATAGTCCAGGAGA | 0.131
TCCCCGGGAGTGGAAGAGA | 0.185
TCCCTCGGAGTAGTCGAGA | 0.0803
TCCCGGTGAGTTGCCGAGA | 0.386
TCCCACACAGTATATGAGA | 0.207
TCCCGAAGAGTGTGGGAGA | 0.339
TCCCGTCAAGTGGATGAGA | 0.109
TCCCCTGAAGTTTCGGAGA | 0.222
TCCCGAAGAGTGACGGAGA | 0.364
TCCCAGGTAGTGACTGAGA | 0.294
TCCCCGAGAGTGTGTGAGA | 0.248
TCCCGGAGAGTACCGGAGA | 0.0749
TCCCATCGAGTTCCCGAGA | 0.265
TCCCTAGGAGTGGACGAGA | 0.458
TCCCGGGCAGTGGCCGAGA | 0.354

Sequence | TetR repression strength
TCCCAGAAAGTAGAAGAGA | 0.0159
TCCCAATGAGTGTGTGAGA | 0.24
TCCCTCAAAGTTGTGGAGA | 0.389
TCCCAGCTAGTTTCCGAGA | 0.336
TCCCCCCGAGTAAGAGAGA | 0.5
TCCCGGCAAGTTGGGGAGA | 0.224
TCCCACGTAGTGCTAGAGA | 0.241
TCCCAAGCAGTGCGTGAGA | 0.0766
TCCCCTACAGTGGGCGAGA | 0.262
TCCCTTCAAGTCTCCGAGA | 0.338
TCCCGCTGAGTTAACGAGA | 0.241
TCCCCTGTAGTTATAGAGA | 0.175
TCCCTTCAAGTAATAGAGA | 0.436
TCCCCTCTAGTAGTTGAGA | 0.149
TCCCCAATAGTGTGAGAGA | 0.187
TCCCCTTTAGTTATAGAGA | 0.333
TCCCTTCGAGTGTAAGAGA | 0.206
TCCCGAATAGTCCGTGAGA | 0.355
TCCCCAGGAGTGCACGAGA | 0.236
TCCCTTTAAGTAACCGAGA | 0.449
TCCCCTTTAGTGCGCGAGA | 0.333
TCCCGGGCAGTCTCGGAGA | 0.257
TCCCACGCAGTGAGCGAGA | 0.101
TCCCTGTGAGTGTAAGAGA | 0.308
TCCCAAGGAGTCGGAGAGA | 0.16
TCCCAAGGAGTGATAGAGA | 0.977

Sequence | TetR repression strength
TCCCTGTCAGTTGGCGAGA | 0.874
TCCCGGTAAGTGAGTGAGA | 0.277
TCCCGTGGAGTTCAGGAGA | 0.13
TCCCCAGTAGTGACGGAGA | 0.28
TCCCGAAAAGTAGGGGAGA | 0.143
TCCCATTTAGTAGTGGAGA | 0.135
TCCCTCTAAGTGAACGAGA | 0.296
TCCCGCGGAGTTGCTGAGA | 0.292
TCCCGCTGAGTCTGTGAGA | 0.235
TCCCTTATAGTAGGCGAGA | 0.0601
TCCCCTTGAGTGGTCGAGA | 0.162
TCCCCTAGAGTCGTTGAGA | 0.311
TCCCCCGAAGTCCGTGAGA | 0.216
TCCCAGCGAGTCTGCGAGA | 0.166
TCCCGAACAGTTGATGAGA | 0.311
TCCCACTTAGTGGGGGAGA | 0.105
TCCCTCATAGTGGGGGAGA | 0.194
TCCCGGGTAGTCGTGGAGA | 0.19
TCCCAGGCAGTGTGCGAGA | 0.291
TCCCATCGAGTCAGAGAGA | 0.36
TCCCTGGCAGTCGGGGAGA | 0.473
TCCCTATAAGTGCTTGAGA | 0.379
TCCCGGTCAGTTACGGAGA | 0.212
TCCCTGCAAGTGATCGAGA | 0.298
TCCCCTTTAGTAGGCGAGA | 0.118
TCCCTGTTAGTAGTTGAGA | 0.362

Sequence | TetR repression strength
TCCCGTGGAGTGTTAGAGA | 0.23
TCCCGATAAGTAGCGGAGA | 0.234
TCCCGGTAAGTGAAGGAGA | 0.14
TCCCCGCAAGTTACAGAGA | 0.267
TCCCAGGGAGTCCGGGAGA | 0.229
TCCCAATGAGTGAAAGAGA | 0.451
TCCCACGTAGTCCTCGAGA | 0.293
TCCCTGCGAGTGGGGGAGA | 0.264
TCCCACGTAGTGGTTGAGA | 0.322
TCCCTCTCAGTTGGTGAGA | 0.339
TCCCCTGCAGTAGGGGAGA | 0.253
TCCCGTGCAGTCGTCGAGA | 0.216
TCCCTTTGAGTGCATGAGA | 0.403
TCCCGTTTAGTGATGGAGA | 0.124
TCCCGGGGAGTGTGTGAGA | 0.226
TCCCTATGAGTTGCGGAGA | 0.383
TCCCGGAAAGTTAGCGAGA | 0.153
TCCCTTTAAGTTATTGAGA | 0.618
TCCCCGTCAGTGAGTGAGA | 0.36
TCCCTGATAGTATTAGAGA | 0.228
TCCCCGCAAGTCTAGGAGA | 0.739
TCCCAAAGAGTGGGTGAGA | 0.189
TCCCGCCCAGTGCAGGAGA | 0.203
TCCCTGATAGTGGCGGAGA | 0.0318
TCCCAATTAGTGCGCGAGA | 0.244
TCCCCATAAGTATTAGAGA | 0.379

Sequence | TetR repression strength
TCCCCTGCAGTCCATGAGA | 0.42
TCCCAAAGAGTACGTGAGA | 0.207
TCCCGGGGAGTGATGGAGA | 0.229
TCCCAATAAGTAGGCGAGA | 0.252
TCCCACGGAGTGTCTGAGA | 0.0542
TCCCGCTCAGTAAGGGAGA | 0.325
TCCCTGGAAGTAATCGAGA | 0.241
TCCCCATGAGTACTCGAGA | 0.261
TCCCATCGAGTCATTGAGA | 0.158
TCCCCACTAGTTCATGAGA | 0.335
TCCCATTGAGTTTGTGAGA | 0.3
TCCCGTTGAGTATCTGAGA | 0.233
TCCCGTCAAGTAAGAGAGA | 0.218
TCCCCTGTAGTGGCGGAGA | 0.139
TCCCGTCGAGTTCGGGAGA | 0.199
TCCCTCAAAGTAGAGGAGA | 0.159
TCCCTCCGAGTTGGAGAGA | 0.404
TCCCCACAAGTAGGGGAGA | 0.172
TCCCTGTCAGTCTTTGAGA | 0.289
TCCCAGCTAGTTTTAGAGA | 0.287
TCCCGGCTAGTATCCGAGA | 0.244
TCCCACTGAGTTGCAGAGA | 0.364
TCCCTTTAAGTGGCTGAGA | 0.498
TCCCTGCTAGTGAACGAGA | 0.155
TCCCTCCTAGTGTGTGAGA | 0.25
TCCCGATCAGTGCCTGAGA | 0.225

Sequence | TetR repression strength
TCCCACGTAGTCCTAGAGA | 0.313
TCCCAACCAGTAATGGAGA | 0.713
TCCCTTTAAGTCACGGAGA | 0.22
TCCCGTAGAGTAGCGGAGA | 0.0731
TCCCCCGGAGTGTTTGAGA | 0.42
TCCCGGCGAGTCGTTGAGA | 0.801
TCCCCCTAAGTTAATGAGA | 0.377
TCCCTGGAAGTAGTCGAGA | 0.115
TCCCATGGAGTGAACGAGA | 0.285
TCCCACTGAGTTATGGAGA | 0.151
TCCCTAATAGTGGGGGAGA | 0.221
TCCCATGCAGTTCAGGAGA | 0.264
TCCCGTGTAGTTTGTGAGA | 0.298
TCCCTAAAAGTGAGCGAGA | 0.32
TCCCGGTTAGTAGTGGAGA | 0.37
TCCCCGGTAGTTCAGGAGA | 0.251
TCCCGTCCAGTATGGGAGA | 0.176
TCCCGATAAGTAGCTGAGA | 0.921
TCCCTTGAAGTCTCCGAGA | 0.276
TCCCGACCAGTACGAGAGA | 0.0115
TCCCAAAGAGTACGGGAGA | 0.092
TCCCGTGGAGTTCATGAGA | 0.16
